# Reference: article PMC4336329 (PLoS ONE, 2015)
# Screen size: about 310,000 compounds; about 14,000 (4.5%) showed an effect of 50% or more. The effect is printed as a negative number. The list shows a part of the results.
# Target: human ether-à-go-go-related gene (hERG) potassium channel (human, UniProt Q12809)
# Assay: primary screen, population patch clamp on CHO cells stably expressing hERG
# 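Note: peak tail current of the secondary pulse compared with the same well before compound.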
# Sequence of human ether-à-go-go-related gene (hERG) potassium channel (Q12809 whole entry, looked up): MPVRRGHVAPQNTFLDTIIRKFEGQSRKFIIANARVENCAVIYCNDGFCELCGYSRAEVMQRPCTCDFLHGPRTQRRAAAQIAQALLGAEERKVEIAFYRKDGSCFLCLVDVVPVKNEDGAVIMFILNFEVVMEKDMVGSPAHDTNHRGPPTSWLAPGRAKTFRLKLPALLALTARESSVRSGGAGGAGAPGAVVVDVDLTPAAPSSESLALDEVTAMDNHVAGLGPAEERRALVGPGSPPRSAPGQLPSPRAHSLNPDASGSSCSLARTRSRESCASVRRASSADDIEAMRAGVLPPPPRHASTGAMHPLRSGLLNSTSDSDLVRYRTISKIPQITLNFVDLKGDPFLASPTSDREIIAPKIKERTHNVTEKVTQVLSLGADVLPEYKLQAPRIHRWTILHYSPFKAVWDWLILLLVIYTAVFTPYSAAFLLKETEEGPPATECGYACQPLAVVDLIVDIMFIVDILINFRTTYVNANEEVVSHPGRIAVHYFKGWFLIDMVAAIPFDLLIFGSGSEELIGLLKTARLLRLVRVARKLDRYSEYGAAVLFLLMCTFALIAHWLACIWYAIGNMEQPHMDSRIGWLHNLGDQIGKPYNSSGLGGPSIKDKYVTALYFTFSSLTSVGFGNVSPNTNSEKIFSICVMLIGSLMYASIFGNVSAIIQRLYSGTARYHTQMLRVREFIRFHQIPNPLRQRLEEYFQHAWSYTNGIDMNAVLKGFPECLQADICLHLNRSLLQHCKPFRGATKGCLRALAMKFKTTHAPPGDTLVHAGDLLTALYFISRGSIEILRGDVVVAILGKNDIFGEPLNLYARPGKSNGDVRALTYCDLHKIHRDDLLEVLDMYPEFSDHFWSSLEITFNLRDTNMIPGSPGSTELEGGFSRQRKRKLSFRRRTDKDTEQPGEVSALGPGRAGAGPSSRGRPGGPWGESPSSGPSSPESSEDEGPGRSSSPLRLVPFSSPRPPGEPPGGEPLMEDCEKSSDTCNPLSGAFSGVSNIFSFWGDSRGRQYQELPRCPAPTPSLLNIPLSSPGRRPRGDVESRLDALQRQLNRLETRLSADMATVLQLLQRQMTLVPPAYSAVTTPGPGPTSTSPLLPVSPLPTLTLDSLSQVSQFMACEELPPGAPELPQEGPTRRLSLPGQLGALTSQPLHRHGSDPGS
row,SMILES,"hERG current change (%, negative = inhibition) at 10uM [%]"
1,O=C(COC(=O)CCS(=O)(=O)c1ccccc1)Nc1ccccc1,-7.09
2,O=C(c1ccco1)n1nc(-c2ccccc2)nc1SCc1ccccc1,3.93
3,O=C(CN1CCCCC1)NCC(=O)Nc1ccc(F)c(F)c1F,7.49
4,O=C(CN1CCN(C/C=C/c2ccccc2)CC1)NC(=O)NC1CCCCC1,-74.8
5,C=C1CCC2[C@](C)(CO)[C@H](O)CC[C@@]2(C)[C@@H]1C/C=C1\C(=O)OC[C@H]1O (some centres unmarked),18.9
6,CCC(C)[C@H](NC(=O)N1CCCCCC1)C(=O)OC (some centres unmarked),5.25
7,CCc1cc(C(=O)NCC(c2ccco2)N2CCCCC2)sc1C (centres unmarked),-18.5
8,Cc1cc(=O)c2ccccc2[nH]1,-5.12
9,C=CCn1c(SCC(=O)NCc2ccco2)nc2ccccc2c1=O,-50.3
10,COc1ccc(C)cc1NCc1cc(=O)oc2cc(-c3ccccc3)c(O)cc12,13.1
11,Cc1cc(C)cc(NC(=O)CCc2nc3ccccc3[nH]2)c1,7.15
12,CC(=O)Nc1ccc(NS(=O)(=O)c2ccc3c(c2)n(C)c(=O)n3C)cc1,1.94
13,CCOC(=O)c1ccc(NC(=S)NCc2ccco2)cc1,-11.1
14,CCCCCCSc1cccc(-c2nc3cc(C)ccn3c2NCc2ccccc2)c1.O=C(O)C(F)(F)F,11.1
15,O=C(NCCc1ccccc1)c1c(O)c2cccc3c2n(c1=O)CC3,1.79
16,COc1cccc(-c2c(C(=O)N/N=C/c3ccncc3)nnn2-c2nonc2N)c1,-7.69
17,Cc1c(N2C(=O)C(C)SC23C(=O)Nc2ccccc23)c(=O)n(-c2ccccc2)n1C (centres unmarked),17
18,Cc1cccc(Cn2c(O)c(N=NC(=S)Nc3ccccc3F)c3ccccc32)c1,16.2
19,Cn1nnc2c[n+](CC(=O)c3ccc4ccccc4c3)cc(Br)c21.[Br-],-41.9
20,CC(=O)Oc1c(C)c2c3c(c1OC(C)=O)[C@@H](C)CC[C@@H]3[C@@H](C)C[C@H]2C=C(C)C,-20.8
21,CC(C)c1ccc(/C=C/C(=O)NC(=S)Nc2ccc(CN3CCOCC3)cc2)cc1,22.6
22,CCOC(=O)C1CCN(Cc2cccc(OC)c2)CC1,-1.39

row,SMILES,"hERG current change (%, negative = inhibition) at 10uM [%]"
1,C=CCn1c(SCC(=O)NCC2CCCO2)nc2c([nH]c3ccccc32)c1=O (centres unmarked),6.25
2,COc1ccc(C2NC(=S)NC(C)=C2C(=O)N2CCOCC2)cc1 (centres unmarked),6.23
3,Cl.Cn1c(=N)n(CC(O)c2cccs2)c2ccccc21 (centres unmarked),-39.9
4,CCSc1ncc(/C=N/Nc2ccccc2)n1C,-4.06
5,C/C(CC(=O)NCCCN1CCOCC1)=N\NC(=O)COc1ccc(Cl)cc1,5.78
6,CCN(CC(=O)Nc1ccc(OC)cc1)C(=O)c1ccccc1Sc1ccccc1C#N,1.4
7,Cc1cc(C)n(CCNC(=O)c2cc(COc3ccc(F)cc3Cl)on2)n1,-10
8,O=C(NC1CCCCCC1)c1cccs1,3.67
9,CSc1nc(C)c(CCOC(=O)c2ccccc2)c(=O)[nH]1,1.39
10,COCCn1c(=NC(=O)c2sc3ccccc3c2Cl)sc2cc(S(N)(=O)=O)ccc21,18.6
11,COc1cccc(Nc2nnc(SCC(=O)N3CCOCC3)s2)c1,-11
12,COC(=O)c1cn(NC(=O)Cc2cccc(OC)c2)c(=O)c2ccccc12,12
13,O=S(=O)(C=C(c1ccccc1)c1ccccc1)c1ccccc1,2.74
14,CCc1cccc(NC(=O)CN(C)C2=NS(=O)(=O)c3ccccc32)c1,12.5
15,Cc1cc(C)c2nc(N3CCC(C(=O)N4CCCC4)CC3)sc2c1,-67.7
16,CCOC(=O)c1cc([N+](=O)[O-])c([N+](=O)[O-])cc1NC(C)=O,5.46
17,COc1cccc(OCC(=O)NNC(=O)C(=O)Nc2cccc(C)c2)c1,7.35
18,COc1cc(/C=N/N=C(/N)c2nonc2N)cc(Br)c1OCc1ccccc1C,-0.63
19,CCC1CCCCN1C(=S)NCc1ccccc1 (centres unmarked),-1.29
20,O=C(c1cccc(S(=O)(=O)N2CCOCC2)c1)N1CCCc2ccccc21,9.6
21,CC1Cc2ccccc2N1S(=O)(=O)c1cnc[nH]1 (centres unmarked),14.2
22,Cc1ccnc(NC(=O)CCC2CCCCC2)c1,-3.31

row,SMILES,"hERG current change (%, negative = inhibition) at 10uM [%]"
1,C=CCSc1nsc(N)n1,12.5
2,O=C(Nc1cccc(C(=O)O)c1)/C(=C\c1ccc2c(c1)OCO2)NC(=O)c1ccc(Br)cc1,17.9
3,C[C@@H]1C=C(C(=O)NCc2nc3ccccc3[nH]2)O[C@H](OCc2ccc(CO)cc2)C1,3.27
4,CCS(=O)(=O)c1nc2ccccc2n1Cc1ccccn1,3.86
5,CC(=O)N1CCN(c2ccccc2NC(=O)COc2cc(C)ccc2C(C)C)CC1,-39.2
6,O=C(CNC(c1ccccc1)c1ccccc1)Nc1cc([N+](=O)[O-])ccc1Cl,10.7
7,CCCCCCOC(=O)c1ccccc1NC(=O)/C=C/C(=O)O,-7.7
8,CCOC(=O)c1c(-c2ccc(C)cc2)csc1/N=C/N(C)C,15.3
9,C/C(CCN1CCc2nc(-c3ccccc3)c(-c3ccccc3)cc2C1)=N\O[C@@H](C)c1cc(-c2c(C)cc(C)cc2C)no1,4.08
10,Cc1ccc(S(=O)(=O)N2[C@@H](c3ccc(Cl)cc3)C(C(=O)O)=CC[C@H]2c2ccc(Cl)c(Cl)c2)cc1,11.1
11,Cc1ccccc1NC(=O)CC(O)(C(F)(F)F)C(F)(F)F,-14.7
12,CCc1ccccc1NC(=O)CN1CCN(C(=O)COc2ccccc2C#N)CC1,-34.6
13,Cc1ccccc1NC(=O)CSc1nnc(C2CC2)n1CC1CCCO1 (centres unmarked),7.52
14,O=C(COc1ccc(S(=O)(=O)N2CCOCC2)cc1Cl)NC1CCCCC1,-19.4
15,CC1(NC(=O)c2cccc(S(=O)(=O)N3CCN(c4ccc(F)cc4)CC3)c2)CCS(=O)(=O)C1 (centres unmarked),-29.5
16,C/C(=N/NC(=O)c1ccncc1)C1=C(O)CC(C)(C)CC1=O,33.2
17,Cc1ccc(S(=O)(=O)/C(C#N)=C/c2c(N3CCN(C)CC3)nc3c(C)cccn3c2=O)cc1,-67.5
18,COc1ccc(NC(=O)CN(C)C(=O)c2ccc(NS(=O)(=O)c3ccc4[nH]c(=O)[nH]c4c3)cc2)cc1,16.1
19,O=C(NC1CCCCCC1)c1ccc(Br)o1,1.18
20,CCOC(=O)Cn1nnnc1CN1CCN(c2ccc(OC)cc2)CC1,-16.7
21,Cc1sc2ncnc(SCC(=O)NCC(C)C)c2c1C,-2.52
22,Nc1nc(COC(=O)C2CCN(C(=O)c3ccc(Cl)cc3)CC2)nc(Nc2ccccc2)n1,-67.8

row,SMILES,"hERG current change (%, negative = inhibition) at 10uM [%]"
1,Cc1ccc(S(=O)(=O)N2[C@@H](c3cccc(Cl)c3)C(C(=O)O)=CC[C@H]2c2ccc(Cl)c(Cl)c2)cc1,16.2
2,COc1cccc(OC)c1C(=O)Nc1cccc(C(=O)Nc2cccc(C(=O)O)c2)c1,25.5
3,COc1ccc(Nc2ccccc2NC(=O)c2ccccc2Br)cc1,3.05
4,O=C(O)CCc1nc(-c2ccccc2Cl)no1,11.6
5,COC1(NS(=O)(=O)c2ccc(Br)cc2)C(C)=CC(=O)C=C1C,32.3
6,COc1ccc(CC(=O)OCC(=O)NC(=O)NC2CCCCC2)cc1,-3.87
7,N#Cc1ccc(CN2CCN(C(=O)CCNS(=O)(=O)c3ccc(F)c(Cl)c3)CC2)cc1,3.19
8,Cc1ccsc1C(=O)OCC(=O)N1CCc2ccccc2C1,-7.58
9,CC(c1ccccc1)N(C)C(=O)CN1CCN(S(=O)(=O)c2ccc3c(c2)OCCCO3)CC1 (centres unmarked),-5.57
10,CCn1c2ccccc2c2nnc(SCC(=O)NCc3cccs3)nc21,-11.4
11,Cc1cccc(N(C(=O)Cc2cccs2)C(C(=O)NC2CCCC2)c2ccncc2)c1 (centres unmarked),8.83
12,NC1=NC(=O)/C(=C\c2ccc(-c3ccc(Cl)cc3)o2)S1,9.15
13,[O-][N+]12CC[N+]([O-])(CC1)c1ccccc12,4.48
14,Cc1cc(C)cc(N(CC(=O)NC(C)(C)C)C(=O)CCC(=O)Nc2nccs2)c1,-3.95
15,O=C(NCc1ccccc1)c1noc2c1CCCCC2,-2.31
16,O=C(Nc1ccc(Cl)cn1)C1CCN(c2ncnc3c2nc2n3CCCCC2)CC1,-38.8
17,COc1ccc(S(=O)(=O)N2CCN(CC(=O)Nc3cc(C(F)(F)F)ccc3Cl)CC2)cc1,-4.6
18,Cc1ccc([N+](=O)[O-])cc1N,37.4
19,CCOc1ccccc1NC(=O)CCS(=O)(=O)c1cccc2nonc12,0.103
20,CCOC(=O)c1cnc(SC)nc1Oc1cccc(NS(=O)(=O)c2ccc(F)cc2)c1,-71.2
